Data taken from PubChem BioAssay (NCI).
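Test compounds were applied to cells in 96-well plates for 48 hours at 5 doses. Here, GI50 denotes the concentration required for 50% inhibition of growth.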 For part of its entries the source gives two or more results. The other results are left out here. The source may hold further records. For some assays here: Records of one sample usually come from different ranges of test concentrations, not given here; some values may only mark the edge of a range. For some assays here: The values listed for one entry are repeats across runs, samples, wells, individuals or studies. Brackets tell where a record comes from. Letters hold for one entry only.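 TGI: concentration producing complete growth inhibition.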

Tests used:
Assay in all cases: inhibition of tumour cell growth, NCI panel, 48 h
MCF7 breast = tested on: MCF7 breast
RPMI-8226 leukemia = tested on: RPMI-8226 leukemia
BT-549 breast = tested on: BT-549 breast
HS 578T breast = tested on: HS 578T breast
K-562 leukemia = tested on: K-562 leukemia
KM12 colon = tested on: KM12 colon
MALME-3M melanoma = tested on: MALME-3M melanoma
MDA-MB-435 = tested on: MDA-MB-435
NCI-H226 lung = tested on: NCI-H226 lung
NCI-H23 lung = tested on: NCI-H23 lung
NCI-H460 lung = tested on: NCI-H460 lung
NCI-H522 lung = tested on: NCI-H522 lung
OVCAR-3 ovarian = tested on: OVCAR-3 ovarian
OVCAR-4 ovarian = tested on: OVCAR-4 ovarian
SF-268 CNS = tested on: SF-268 CNS
SK-MEL-2 melanoma = tested on: SK-MEL-2 melanoma
SK-MEL-28 melanoma = tested on: SK-MEL-28 melanoma
SK-MEL-5 melanoma = tested on: SK-MEL-5 melanoma
SNB-75 CNS = tested on: SNB-75 CNS
SR leukemia = tested on: SR leukemia
T-47D breast = tested on: T-47D breast
U251 CNS = tested on: U251 CNS
UACC-257 melanoma = tested on: UACC-257 melanoma
UACC-62 melanoma = tested on: UACC-62 melanoma
CAKI-1 renal = tested on: CAKI-1 renal
DU-145 prostate = tested on: DU-145 prostate
SF-295 CNS = tested on: SF-295 CNS
TK-10 renal = tested on: TK-10 renal
M14 melanoma = tested on: M14 melanoma
MDA-N = tested on: MDA-N
NCI/ADR-RES ovarian = tested on: NCI/ADR-RES ovarian
OVCAR-5 ovarian = tested on: OVCAR-5 ovarian
SF-539 CNS = tested on: SF-539 CNS

CC(C)[C@](O)(c1ccc2cc(OC(F)F)c(OC(F)F)cc2c1)c1cn[nH]n1
GI50 (MCF7 breast): 26 nM [sample A, 1 test] and 16.5 µM [sample B, 1 test]

CCCC(=O)O
TGI (RPMI-8226 leukemia): 989 µM and > 18.7 mM

CN1CCc2cc3c(cc2C1O)OCO3 (stereo not given)
GI50 (BT-549 breast): > 100 µM [sample A, 1 test] and 210 nM [sample B, mean of 2 tests] | TGI (BT-549 breast): > 100 µM [sample A, 1 test] and 436 nM [sample B, mean of 2 tests] | GI50 (HS 578T breast): > 100 µM [sample A, 1 test] and 8.37 µM [sample B, mean of 2 tests] | GI50 (K-562 leukemia): > 100 µM [sample A, 1 test] and 7.54 µM [sample B, mean of 2 tests] | GI50 (KM12 colon): > 100 µM [sample A, 1 test] and 8.21 µM [sample B, mean of 2 tests] | GI50 (MALME-3M melanoma): > 100 µM [sample A, 1 test] and 1.82 µM [sample B, mean of 2 tests] | TGI (MALME-3M melanoma): > 100 µM [sample A, 1 test] and 5.46 µM [sample B, mean of 2 tests] | GI50 (MCF7 breast): > 100 µM [sample A, 1 test] and 5.82 µM [sample B, mean of 2 tests] | GI50 (MDA-MB-435): > 100 µM [sample A, 1 test] and 2.45 µM [sample B, mean of 2 tests] | GI50 (NCI-H226 lung): > 100 µM [sample A, 1 test] and 2.53 µM [sample B, 1 test] | TGI (NCI-H226 lung): > 100 µM [sample A, 1 test] and 5.75 µM [sample B, 1 test] | GI50 (NCI-H23 lung): > 100 µM [sample A, 1 test] and 4.9 µM [sample B, mean of 2 tests] | GI50 (NCI-H460 lung): > 100 µM [sample A, 1 test] and 367 nM [sample B, mean of 2 tests] | TGI (NCI-H460 lung): > 100 µM [sample A, 1 test] and 1.76 µM [sample B, mean of 2 tests] | GI50 (NCI-H522 lung): > 100 µM [sample A, 1 test] and 230 nM [sample B, 1 test] | TGI (NCI-H522 lung): > 100 µM [sample A, 1 test] and 617 nM [sample B, 1 test] | GI50 (OVCAR-3 ovarian): > 100 µM [sample A, 1 test] and 1.98 µM [sample B, mean of 2 tests] | TGI (OVCAR-3 ovarian): > 100 µM [sample A, 1 test] and 4.19 µM [sample B, mean of 2 tests] | GI50 (OVCAR-4 ovarian): > 100 µM [sample A, 1 test] and 3.45 µM [sample B, mean of 2 tests] | GI50 (RPMI-8226 leukemia): > 100 µM [sample A, 1 test] and 9.61 µM [sample B, mean of 2 tests] | GI50 (SF-268 CNS): > 100 µM [sample A, 1 test] and 9.34 µM [sample B, mean of 2 tests] | GI50 (SK-MEL-2 melanoma): > 100 µM [sample A, 1 test] and 3.92 µM [sample B, mean of 2 tests] | GI50 (SK-MEL-28 melanoma): > 100 µM [sample A, 1 test] and 7.71 µM [sample B, mean of 2 tests] | GI50 (SK-MEL-5 melanoma): > 100 µM [sample A, 1 test] and 568 nM [sample B, mean of 2 tests] | TGI (SK-MEL-5 melanoma): > 100 µM [sample A, 1 test] and 1.92 µM [sample B, mean of 2 tests] | GI50 (SNB-75 CNS): > 100 µM [sample A, 1 test] and 4.33 µM [sample B, mean of 2 tests] | GI50 (SR leukemia): > 100 µM [sample A, 1 test] and 3.31 µM [sample B, mean of 2 tests] | GI50 (T-47D breast): > 100 µM [sample A, 1 test] and 2.68 µM [sample B, 1 test] | TGI (T-47D breast): > 100 µM [sample A, 1 test] and 7.75 µM [sample B, 1 test] | GI50 (U251 CNS): > 100 µM [sample A, 1 test] and 7.85 µM [sample B, mean of 2 tests] | GI50 (UACC-257 melanoma): > 100 µM [sample A, 1 test] and 2.84 µM [sample B, mean of 2 tests] | GI50 (UACC-62 melanoma): > 100 µM [sample A, 1 test] and 1.66 µM [sample B, 1 test] | TGI (UACC-62 melanoma): > 100 µM [sample A, 1 test] and 4.87 µM [sample B, 1 test]

Cc1ccc(C(=O)N(CCCN)[C@@H](c2nc3cc(Cl)ccc3c(=O)n2Cc2ccccc2)C(C)C)cc1
GI50 (CAKI-1 renal): 176 nM [sample A, mean of 2 tests] and < 10 nM [sample B, mean of 2 tests] | TGI (DU-145 prostate): < 10 nM [sample A, 1 test] and 1.33 µM [sample B, mean of 2 tests] | TGI (NCI-H522 lung): < 10 nM [sample A, mean of 2 tests] and 1.55 µM [sample B, mean of 2 tests] | TGI (OVCAR-3 ovarian): 124 nM [sample A, mean of 2 tests] and 1.58 µM [sample B, mean of 2 tests] | GI50 (SF-268 CNS): < 10 nM [sample A, mean of 2 tests] and 402 nM [sample B, mean of 2 tests] | TGI (SF-295 CNS): < 10.5 nM [sample A, mean of 2 tests] and 369 nM [sample B, mean of 2 tests] | TGI (SK-MEL-2 melanoma): < 10 nM [sample A, 1 test] and 2.27 µM [sample B, mean of 2 tests] | GI50 (TK-10 renal): < 10 nM [sample A, mean of 2 tests] and 1.33 µM [sample B, mean of 2 tests] | GI50 (UACC-257 melanoma): < 10 nM [sample A, mean of 2 tests] and 1.2 µM [sample B, mean of 2 tests]

COc1cccc([C@H]2CC(=O)c3cc4c(cc3N2)OCO4)c1
TGI (M14 melanoma): 3.04 µM and > 100 µM | TGI (MDA-N): 345 nM and > 100 µM | TGI (NCI/ADR-RES ovarian): 1.75 µM and > 100 µM | TGI (OVCAR-5 ovarian): 7 µM and > 100 µM | TGI (SF-539 CNS): 884 nM and > 100 µM

Nc1ccn(C2OC(CO)C(O)C2F)c(=O)n1 (stereo not given)
GI50 (NCI/ADR-RES ovarian): 99.5 µM and > 5 mM
